Data from article PMC4336329 (PLoS ONE, 2015).
The campaign covered roughly 310,000 compounds. About 2,200 (0.71%) showed an effect of 50% or more. Effects have a minus sign here. This is one part of the list.

target: human ether-à-go-go-related gene (hERG) potassium channel (human, UniProt Q12809); test: primary screen, population patch clamp on CHO cells stably expressing hERG
Sequence (Q12809 whole entry, looked up): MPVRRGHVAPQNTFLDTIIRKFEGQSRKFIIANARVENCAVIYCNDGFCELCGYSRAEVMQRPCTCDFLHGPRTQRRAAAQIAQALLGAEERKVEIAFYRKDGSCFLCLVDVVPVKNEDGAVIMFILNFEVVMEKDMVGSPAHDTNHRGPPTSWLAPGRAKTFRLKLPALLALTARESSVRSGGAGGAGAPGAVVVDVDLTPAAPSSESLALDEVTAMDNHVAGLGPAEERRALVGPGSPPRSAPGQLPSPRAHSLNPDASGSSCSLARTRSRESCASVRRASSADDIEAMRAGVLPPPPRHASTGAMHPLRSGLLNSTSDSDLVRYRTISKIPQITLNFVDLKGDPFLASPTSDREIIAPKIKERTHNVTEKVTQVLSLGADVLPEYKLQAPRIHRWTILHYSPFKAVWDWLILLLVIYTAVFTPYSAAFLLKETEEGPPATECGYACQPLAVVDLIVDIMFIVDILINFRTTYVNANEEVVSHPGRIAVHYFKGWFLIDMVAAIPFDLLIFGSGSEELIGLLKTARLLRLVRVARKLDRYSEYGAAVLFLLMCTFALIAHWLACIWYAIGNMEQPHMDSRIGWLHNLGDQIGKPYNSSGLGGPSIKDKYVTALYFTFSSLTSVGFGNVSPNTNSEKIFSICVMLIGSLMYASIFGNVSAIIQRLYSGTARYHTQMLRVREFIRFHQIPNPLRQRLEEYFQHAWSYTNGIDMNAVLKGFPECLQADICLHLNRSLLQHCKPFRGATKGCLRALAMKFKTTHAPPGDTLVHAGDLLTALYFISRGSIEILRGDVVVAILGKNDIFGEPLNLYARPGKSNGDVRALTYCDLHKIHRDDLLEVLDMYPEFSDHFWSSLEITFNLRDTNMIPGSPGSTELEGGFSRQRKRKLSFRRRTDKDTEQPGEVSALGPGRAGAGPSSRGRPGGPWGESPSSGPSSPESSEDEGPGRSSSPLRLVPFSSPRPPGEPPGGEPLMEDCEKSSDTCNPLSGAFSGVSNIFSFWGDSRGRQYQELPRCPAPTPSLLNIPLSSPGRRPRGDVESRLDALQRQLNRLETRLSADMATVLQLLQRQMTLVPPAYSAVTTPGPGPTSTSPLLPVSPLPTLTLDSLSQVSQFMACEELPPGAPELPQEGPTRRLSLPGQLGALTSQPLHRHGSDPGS

| Compound | hERG current change (%, negative = inhibition) at 1uM [%] |
| --- | --- |
| O=C(Nc1nc2ccccc2s1)c1cc2c(s1)-c1ccccc1OC2 | 4.38 |
| O=C(NCCNC(=O)c1ccccc1)c1ccccc1 | 8.29 |
| Cc1nn(CC(=O)NC2CCCCC2)c(=O)c2cccn12 | 7.64 |
| CCCc1nc(C)cc(N2CCN(c3ccccc3)CC2)n1.Cl | 0.598 |
| CCCNC(=O)Cn1sc2nc(C)cc(C)c2c1=O | 7.27 |
| COc1cccc(C2CCCN2Cc2nc(-c3cnccn3)no2)c1 (stereo not shown) | 7.41 |
| COc1ccc(S(=O)(=O)N2CCCN(CC(=O)C(C)(C)C)CC2)cc1 | 8.1 |
| COc1cc(C2Nc3c(F)cccc3C3C=CCC32)cc(Br)c1OC (stereo not shown) | 9.77 |
| COc1ccc2[nH]c(=O)c(CN(CCCN(C)C)C(=O)Nc3ccccc3)cc2c1 | -1.4 |
| O=[N+]([O-])c1cccc(/C=N/n2c(C3CCCCC3)n[nH]c2=S)c1 | 16.4 |
| CCOC(=O)N1CCN(CC(=O)Nc2sc(CC)cc2C(=O)c2ccc(OC)cc2)CC1 | 10.6 |
| O=C(O)C1=C[C@@H](c2ccc3c(c2)OCO3)C[C@@H](OCc2ccc(CO)cc2)O1 | 6.33 |
| Cc1nn(CC(=O)Nc2c(F)c(F)cc(F)c2F)c(=O)c2cccn12 | 8.94 |
| Cc1c(C(C)C)c(=O)n(-c2ccc(S(=O)(=O)NC3CC3)cc2)n1C | 19.4 |
| Cc1cc(C)c2ccc(=O)n(CC(=O)N/N=C/c3ccccc3Cl)c2n1 | 13.9 |
| COC(=O)c1nnn(-c2nonc2N)c1CSCCO | 16 |
| O=C(CSc1nnnn1C1CCCC1)NCCc1ccccc1 | -0.854 |
| Cc1cc(-c2nnc(SCC(=O)Nc3ccc(S(N)(=O)=O)cc3)n2N)n[nH]1 | -17.3 |
| CN(C)c1ccc(C(=O)c2ccccc2C(=O)O)c(O)c1 | 13.2 |
| COc1ccccc1NC(=O)c1oc2ccccc2c1NC(=O)C1CC1 | 6.86 |
| CC1CCCN(S(=O)(=O)c2ccc(C(=O)Nc3nnc(C4=COCCO4)o3)cc2)C1 (stereo not shown) | 18.1 |
| COC1=C(C)C(=O)O[C@]12C(=O)C(C)=C1CCCCN3[C@H]([C@@H]4C[C@H](C)C(=O)O4)CC[C@]132 | 5.01 |
| Cc1nn(-c2ccccc2)c(Cl)c1/C=C(\C#N)C(=O)NC(C)C | -4.23 |
| COc1ccc(OC)c(Nc2nc(-c3c(C)nc4ncccn34)cs2)c1 | 4.72 |
| COC(=O)c1ccccc1NC(=O)C/C(C)=N/NC(=O)CC#N | 2.83 |
| Cn1c(=O)[nH]c(=O)c2c1nc(N1CCCCC1)n2CCCSc1nc2ccccc2s1 | 9.13 |
| COc1cc(OC)cc(-c2c(-c3cccs3)c3cc(-c4ccc5cc[nH]c5c4)ccc3n2C)c1 | 21.5 |
| Cc1nn(C)c(Oc2cccc(Cl)c2)c1C(=O)Nc1ccc(F)cc1 | -10.7 |

| Compound | hERG current change (%, negative = inhibition) at 1uM [%] |
| --- | --- |
| C=CCOC(=O)C1=C(C)NC(SCC(N)=O)=C(C#N)C1c1cccs1 (stereo not shown) | 7.02 |
| COc1ccc(-c2nnn(CC(=O)N(Cc3cccs3)C(C)C(=O)NCCC(C)C)n2)cc1OC (stereo not shown) | -3.84 |
| O=C(Nc1ccccc1F)NC1CCN(Cc2nnnn2Cc2ccc(F)cc2)CC1 | -34.6 |
| COc1ccccc1NS(=O)(=O)c1cc(NC(=O)c2ccc(Cl)nc2)ccc1Cl | 7.41 |
| COc1ccc(-c2cc(C(=O)OCC(=O)NC(C)(C)C)c3ccccc3n2)cc1 | 6.37 |
| CC(=O)Oc1ccc2c(C)c(CC(=O)N3CCN(C(=O)C4COc5ccccc5O4)CC3)c(=O)oc2c1C (stereo not shown) | -21.2 |
| Cc1cc(Br)ccc1SCC(=O)OCC(=O)NC1CCCC1 | 16.6 |
| COc1cnn(-c2cccc(C(F)(F)F)c2)c(=O)c1Cl | 13.2 |
| CC1(C)CC2CC(C)(CN2S(=O)(=O)c2cccc(C(=O)OCC(=O)NC(N)=O)c2)C1 (stereo not shown) | 6.36 |
| COc1ccccc1-c1cc(C(=O)O)c2c(=O)n(C)c(=O)n(Cc3ccccc3)c2n1 | 12.7 |
| O=C(OCc1ccccc1)C1=NNC2C(=O)N(c3ccccc3)C(=O)C12 (stereo not shown) | 1.98 |
| CCN1CCN(c2cc(C)c3cc(NC(=O)c4cncc(Br)c4)ccc3n2)CC1 | -14.3 |
| O=C(Nc1ccccc1C(F)(F)F)N1CCN(c2ccc3nnc(-c4ccc(F)cc4)n3n2)CC1 | -4.48 |
| O=C(Cc1ccccc1)Nc1ccc(NC(=O)c2ccco2)cc1 | 16.2 |
| COc1ccc(C)c2sc(N(CCCN(C)C)C(=O)c3ccc(S(=O)(=O)N4CCc5ccccc5C4)cc3)nc12.Cl | 11.5 |
| CC(C)NS(=O)(=O)c1ccc(CCC(=O)NCc2ccccn2)cc1 | 12 |
| CC(C)CN(CC(C)C)S(=O)(=O)N1CCC(C(=O)NCCN2CCOCC2)CC1 | 9.27 |
| O=c1[nH]c2ccccc2cc1-c1nnn(-c2ccccc2)n1 | 1.76 |
| O=C1CCNCCN1[C@H](CO)Cc1ccccc1 | 11.2 |
| CC(C)(C)OC(=O)N/N=C\c1cccnc1 | 28.2 |
| COc1ccc(-c2nn(CCC#N)cc2C(=O)NCc2ccccc2)cc1 | 2.28 |
| COc1ccc(CC(=O)NCCc2ccc(Cl)cc2Cl)cc1 | 10.7 |
| O=C(Nc1nccs1)c1ccc(Br)c(S(=O)(=O)N2CCOCC2)c1 | 7.78 |
| Cc1occc1C(=O)N/N=C/c1ccc(Br)s1 | 21.3 |
| Cc1occc1C(=O)N/N=C/c1c(O)ccc2ccccc12 | 19.4 |
| CC(C)OC(=O)NC(Nc1ccccc1C(=O)O)(C(F)(F)F)C(F)(F)F | 12.6 |
| O=C(O)c1cc(-c2ccccc2)nc2nc(N3CCCCC3)sc12 | 14.8 |
